Experimental data published in the RNAGym collection of RNA variant scans (doi:10.7554/elife.90254).
The source gives no read counts; variants with many changes may rest on few reads.

B1: LINE1-full (parent)
chain: UACGUAGGUGGUUUUCCCCUGAUAGUGCUAAGGGGGCCUGGAAGUUUGGACUGGGCAGAGCUCAACACAGCGUGGCAAAGUGGCUGUGGCUAGACUGCCUCUCUGGAUUCCUCGUCACUCAGCAGGGCAUCUCUGAGAGAAAUGCC

Variants of: B1
Assay: self-cleavage, relative activity (ratio to wild type); higher = more cleavage; in vitro, sequencing; the parent is a self-cleaving ribozyme

| Variant | self-cleavage |
| --- | --- |
| UACGUAGGUGGUUUUCCCCUGAUAGUGCCAAGGGGGCCUGGAAGUUUGGACUGGGCAGAGCCCAACACAGCGAGGCAAAGUGGCUGUGGCUAGACUGCCUCUCUGGAUUCCUCGUCACUCAGCAGGGCAUCUCUGAGAGAAAUGCC [U29C U62C U73A] | 0.03 |
| UACGUAGGUGGUUUUCCCCUGAUAGUGCCAAGGGGGCCUGGAAGUUUGGACUGGGCAGAGCUCAACACAGCGCGGCAAAGUGGCUGUGGCUAGACUGCCACUCUGGACUCCUCGUCACUCAGCAGGGCAUCUCUGAGAGAAAUGCC [U29C U73C U100A U108C] | 0 |
| UACGUAGGUGGUUUUCCCCUGAUAGUGCCAAGGGGGCCUGGAAGUUUGGACUGGGCAGAGCUCAACACAGCGUGGCAAAGUGGCAGUGGCUAGACUGCCUCUCUGGAUUCCUCGUCUCUCAGCAGGGCAUCUCUGAGAGAAAUGCC [U29C U85A A117U] | 0.12 |
| UACGUAGGUGGUUUUCCCCUGAUAGUGCCAAGGGGGCCUGGAAGUUUGGACUGGGCAGAGCUCAACACAGCGUGGCAAAGUGGCCGUGGCUAGACUGCCUCUCUGGAUUCCUCGCCACUCAGCAGGGCAUCUCUGAGGGAAAUGCC [U29C U85C U115C A138G] | 0 |
| UACGUAGGUGGUUUUCCCCUGAUAGUGCCAAGGGGGCCUGGAAGUUUGGACUGGGCAGAGCUCAACACAGCGUGGCAAAGUGGCUGCGGCUAGACUGCCUCUCUGGAUUCCUCGUCACUCAGCAGGGCACCCCUGUGAGAAAUGCC [U29C U87C U130C U132C A136U] | 0 |
| UACGUAGGUGGUUUUCCCCUGAUAGUGCCAAGGGGGCCUGGAAGUUUGGACUGGGCAGAGCUCAACACAGCGUGGCAAAGUGGCUGUGGCUAGACUGCCCCCCUGGAUUCCUCGUCACUCAGCAGGGCAACUCUGAGAGAAAUGCC [U29C U100C U102C U130A] | 2.63 |
| UACGUAGGUGGUUUUCCCCUGAUAGUGCCAAGGGGGCCUGGAAGUUUGGACUGGGCAGAGCUCAACACAGCGUGGCAAAGUGGCUGUGGCUAGACUGCCUCUCUGGACUCCUCGUCUCUCAGCAGGGCAUCUCUGAGAGAAAUGCC [U29C U108C A117U] | 1.44 |
| UACGUAGGUGGUUUUCCCCUGAUAGUGCCAAGGGGGCCUGGAAGUUUGGACUGGGCAGAGCUCAACACAGCGUGGCAAAGUGGCUGUGGCUAGACUGCCUCUCUGGACUCCUCGUCACUCAGCAGGGCAUCUCUGAGAUAAAUGCC [U29C U108C G139U] | 1.12 |
| UACGUAGGUGGUUUUCCCCUGAUAGUGCCAAGGGGGCCUGGAAGUUUGGACUGGGCAGAGCUCAACACAGCGUGGCAAAGUGGCUGUGGCUAGACUGCCUCUCUGGAUUCCUCGCCACUCAGUAGGGCAUCUCUGAGAGAAAUGCC [U29C U115C C123U] | 0.86 |
| UACGUAGGUGGUUUUCCCCUGAUAGUGCCAAGGGGGCCUGGAAGUUUGGACUGGGCAGAGCUCAACACAGCGUGGCAAAGUGGCUGUGGCUAGACUGCCUCUCUGGAUUCCUCGUCACCCAGCAGGGCAUUUCUGAGAGGAAUGCC [U29C U119C C131U A140G] | 2.63 |
| UACGUAGGUGGUUUUCCCCUGAUAGUGCCAAGGGGGCCUGGAAGUUUGGACUGGGCAGAGCUCAACACAGCGUGGCAAAGUGGCUGUGGCUAGACUGCCUCUCUGGAUUCCUCGUCACUCAGCAGGGCAUCCCUGAGAGAAACGCC [U29C U132C U143C] | 1.3 |
| UACGUAGGUGGUUUUCCCCUGAUAGUGCGAAGGGGGCCUGGAAGUUUGGACUGGGCGGAGCUCAACACAGCGUGGCAAAGUGGCUGUGGCUAGACUGCCUCUCUGGAUUCCUCGUCACUCAGCGGGGCAUCUCUGAGAGAAAUGCC [U29G A57G A124G] | 0.46 |
| UACGUAGGUGGUUUUCCCCUGAUAGUGCGAAGGGGGCCUGGAAGUUUGGACUGGGCUGAGCUCAACACAGCGUGGCGAAGUGGCUGUGGCUAGACUGCCUCUCUGGAUUCCUCGUCACUCAGCAGGGCAUCUCUGAGAGAAAUGCC [U29G A57U A77G] | 0.42 |
| UACGUAGGUGGUUUUCCCCUGAUAGUGCGAAGGGGGCCUGGAAGUUUGGACUGGGCAGAGCUCAACACGGCGUGGCAAAGUGGCUGUGGCUAGACUGCCUCUCUGGAUUCCUCGUCACUCAGCAGGGCAUCUCAGAGAGAAAUGCC [U29G A69G U134A] | 0.17 |
| UACGUAGGUGGUUUUCCCCUGAUAGUGCGAAGGGGGCCUGGAAGUUUGGACUGGGCAGAGCUCAACACAGCGUGGCAAAGUGGCUGUGGCUAGACUGCCUCUCUGGAUUCCUCGUUACUCAGCAGGGCAUCUCUGAGGGAAAUGCC [U29G C116U A138G] | 1.32 |
| UACGUAGGUGGUUUUCCCCUGAUAGUGCGAAGGGGGCCUGGAAGUUUGAACUGGGCAGAGCUCAACACAGCGUGGCAAAGAGGCUGUGGCUAGACUGCCUCUCUGGAUUCCUCAUCCCUCAGCAGGGCAUCUCUGAGAGAAAUGCC [U29G G49A U81A G114A A117C] | 1.31 |
| UACGUAGGUGGUUUUCCCCUGAUAGUGCGAAGGGGGCCUGGAAGUUCGGACUGGGCAGAGCUCAACACAGCGUGGCAAAGUGGCUGUGGCUAGACUGCCUCUCUGGAUUCCUCGUCACUCAGCAGGGCAUCUCUGAGAGAGAUGCC [U29G U47C A141G] | 1.87 |
| UACGUAGGUGGUUUUCCCCUGAUAGUGCGAAGGGGGCCUGGAAGUUUGGACUGGGCAGAGCUCAACACAGCGUGGCAAAGUGGCAGUGGCUAGACCGCCUCUCUGGAUUCCUCGUCACUCAGCAGGGCAUCUCUGAGAGAAAUGCC [U29G U85A U96C] | 0.15 |
| UACGUAGGUGGUUUUCCCCUGAUAGUGCUCAGGGGGCCUGGAAGUUUGGACUGGGCAGAGCUCAUCACAGCGUGGCAAAGUGGCUGUGGCUAGGCUGCCUCUCUGGAUUCCUCGUCACUCAGCAGGGCAUCUCUGAGAGAAAUGCC [A30C A65U A94G] | 0.27 |
| UACGUAGGUGGUUUUCCCCUGAUAGUGCUCAGGGGGCCUGGAAGUUUGGACUGGGCAGAGCUCAACUCAGCGUGGCGAAGUGGCUGUGGCUAGACUGCCUCUCUGGAUUCCUCGUCACUCAGCAGGGCAUCUCUGAGAGAAAUGCC [A30C A67U A77G] | 0.48 |

| Variant | self-cleavage |
| --- | --- |
| UACGUAGGUGGUUUUCCCCUGAUAGUGCUCAGAGGGCCUGGAAGUUUGGACUGGGCAGAGCUCAACACAACGUGGCAAAGUGGCCAUGGCUAGACUGCCUCUCUGGAUUCCUCGUCACUCAGCAGGGCAUCUCUGAGAGAAAUGCC [A30C G33A G70A U85C G86A] | 0.03 |
| UACGUAGGUGGUUUUCCCCUGAUAGUGCUCAGGGGGCCUGGAAGUUUGGACUGGGCAGAGCUCAACACAGCGUGGCAAAGUGGCUGUGGCUAGACUGCCUCUCUGGAUUCCGCGUCGCUCAGCAGAGCAUCUCUGAGAGAAAUGCC [A30C U112G A117G G126A] | 2.36 |
| UACGUAGGUGGUUUUCCCCUGAUAGUGCUGGGGGGGCCUGGAAGUUUGGACUGGGCAGAGCUCAACACAGCGUGGCAAAGUGGCUGUGGCUAGACUGCCUCUCUGGAUUCCUCGUCACUCAGCAGGGCAUCUCUGAGAGAAAAGCC [A30G A31G U143A] | 1.14 |
| UACGUAGGUGGUUUUCCCCUGAUAGUGCUGAGGGGGCCUGGGAGUUUGGACUGGGCGGAGCUCAACACAGCGUGGCAAAGUGGCUGUGGCUAGACUGCCUCUCUGGAUUCCUCGUCACUCAGCUGGGCAUCUCUGAGAGAUAUGCC [A30G A42G A57G A124U A141U] | 1.97 |
| UACGUAGGUGGUUUUCCCCUGAUAGUGCUGAGGGGGCCUGGGAGUUUGGACUGGGCAGAGCUCAACACAGCGUGGCAAAGUGGCUGUGGCUAGACUGCCACUCUGGAUUCCUCGUCACUCAGCAGGGCAUCUCUGAGAGAAAUGCC [A30G A42G U100A] | 0 |
| UACGUAGGUGGUUUUCCCCUGAUAGUGCUGAGGGGGCCUGGGAGUUUGGACUGGGCAGAGCUCAACACAGCGUGGCAAAGUGGCUGUGGCUAGACUGCCUCUCCGGAUUCCUCGUCACUCAGCAGGGCAUCCCUGAGAGAAAUGCC [A30G A42G U104C U132C] | 2.83 |
| UACGUAGGUGGUUUUCCCCUGAUAGUGCUGAGGGGGCCUGGAGGUUUGGACUGGGCAGAGCUCAACACAGCGUGGCAAAGUGGCUGAGGCUAGACUGCCUCUCUGGAUUCCUCGCCACUCAGCAGGGCAUCUCUGAGAGAAAUGCC [A30G A43G U87A U115C] | 0.14 |
| UACGUAGGUGGUUUUCCCCUGAUAGUGCUGAGGGGGCCUGGAGGUUUGGACUGGGCAGAGCUCAACACAGCGUGGCAAAGUGGCUGUGGCUAGACUGCCUCUCUGGAUUCCACGUCACUCAGCAGGGCAUCUCUGAGAGAAAUGCC [A30G A43G U112A] | 0.43 |
| UACGUAGGUGGUUUUCCCCUGAUAGUGCUGAGGGGGCCUGGAGGUUUGGACUGGGCAGAGCUCAACACAGCGUGGCAAAGUGGCUGUGGCUAGACUGCCUCUCUGGAUUCCUCGUCACUCAGCAGGGCAUCCCUGAGAGAAAUGCC [A30G A43G U132C] | 0.4 |
| UACGUAGGUGGUUUUCCCCUGAUAGUGCUGAGGGGGCCUGGAUGUUUGGACUGGGCAGAGCUCAACACAGCGUGGCAAAGUGGCUGUGGCUAGACUGCCUCUCUGGAUUCCUCGUCACUCAGCAGGGCAUCUCUGAGAGUAAUGCC [A30G A43U A140U] | 1.29 |
| UACGUAGGUGGUUUUCCCCUGAUAGUGCUGAGGGGGCCUGGAAGUUUGGGCUGGGCAGAGCUCAACACAGCGAGGCAAAGUGGCUGUGGCUAGACUGCCUCUCUGGAUUCCUCGUCACUCAGCAGGGCAUCUCUGAGAGAAAUGCC [A30G A50G U73A] | 1.13 |
| UACGUAGGUGGUUUUCCCCUGAUAGUGCUGAGGGGGCCUGGAAGUUUGGACUGGGCGGAGCUCAACACAGCGUGGCAAAGUGGCUGUGGCUAGACUGUCUCUCUGGAUUCCUCGUCACUCAGCAGGGCAUCUCUGAGAGAAAUGCC [A30G A57G C98U] | 0.35 |
| UACGUAGGUGGUUUUCCCCUGAUAGUGCUGAGGGGGCCUGGAAGUUUGGACUGGGCGGAGCCCUACACAGCGUGGCAAAGUAGCUGUGGCUAGACUGCCUCUCUGGAUUCCUCGUCACUCAGCAGGGCAUCUCUGAGAGAAAUGCC [A30G A57G U62C A64U G82A] | 0.05 |
| UACGUAGGUGGUUUUCCCCUGAUAGUGCUGAGGGGGCCUGGAAGUUUGGACUGGGCUGUGCUCAACACGGCGUGGCAAUGUGGCUGUGGCUAGACUGCCUCUCUGGAUUCCUCGUUACUCAGCGGGGCAUCUCAGAGAGAAAUGCC [A30G A57U A59U A69G A79U C116U A124G U134A] | 0 |
| UACGUAGGUGGUUUUCCCCUGAUAGUGCUGAGGGGGCCUGGAAGUUUGGACUGGGCUGUGCUCAACACAGCGUGGCUAAGUGGCUGUGGCUAGACUGCCUCACUGGAUUCCUCGUCACUCAGCGGGGCAUCUCUGAGAGAAAUGCC [A30G A57U A59U A77U U102A A124G] | 0 |
| UACGUAGGUGGUUUUCCCCUGAUAGUGCUGAGGGGGCCUGGAAGUUUGGACUGGGCUGAGCUCAACACAGCGUGGCAAAGUGGCUGUGGCUAGACUGCCUCUCUGGAUUCCUCGUCACUCUGCAGGGCAUUUCUGAGAGAAAUGCC [A30G A57U A121U C131U] | 0.2 |
| UACGUAGGUGGUUUUCCCCUGAUAGUGCUGAGGGGGCCUGGAAGUUUGGACUGGGCUGAGCUCAACACAGCGUGGCAAAGUGGCUGUGGCUAGACUGCCUCUCUGGAUUUCUCGUCACUCAGCAGGGCAUCUCUGAGAGAAAUGCC [A30G A57U C110U] | 0.81 |
| UACGUAGGUGGUUUUCCCCUGAUAGUGCUGAGGGGGCCUGGAAGUUUGGACUGGGCUGAGCUCAACACAGCGUGGCAAAGUGGCUGAGGCUAGACUGCCUCUCAGGAUUCCUCGUCACUCAGCAGGGCAUCUCUGAGAGAAAUGCC [A30G A57U U87A U104A] | 0.08 |
| UACGUAGGUGGUUUUCCCCUGAUAGUGCUGAGGGGGCCUGGAAGUUUGGACUGGGCAGGGCUCAACACAGCGUGGCAAAGUGGCUGUGGCUAGACUGCCUCUCUGGAUUCCUCGUCACUCAGCAGAGCAUCUCUGAGGGAAAUGCC [A30G A59G G126A A138G] | 0.44 |
